Test results reported in PubChem BioAssay (Tox21).
Inconclusive results, whose numbers are uncertain, are shown with a selection of clear calls. For some of these results: No potency is given beside an inconclusive call; the fits are too rough. Calls of active or inactive are those of the source. Unless noted, calls follow the shape of the dose curve; as a rule, active = well fitted curve in the direction sought with a large enough effect in the repeat runs; inconclusive = weak or mixed curves; inactive = no such curve, though single readings can be large; an effect the other way counts as inactive or inconclusive.

Columns and labels:
[1] = A CellTox Green Cytotoxicity Assay to monitor cytotoxicity in HEK293 cells - 8 hour (AID 1224884); also: nearly all actives have a fitted effect of over 35% in size; also: potency is read from the fitted curve at half-maximal effect
Method in brief: (§1)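 Each value comes from one timepoint of a single continuous run in which HEK293 cells with CellTox Green were exposed to compound for up to 40 h at 37 C, dye fluorescence rising with cell death.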

[2] = qHTS RealTime-Glo MT Cell Viability Assay in HEK293 cells - 8 hour (AID 1224887); also: nearly all actives have a fitted effect of over 50% in size; also: potency is read from the fitted curve at half-maximal effect
Method in brief: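 qHTS format; HEK293 cells with NanoLuc/prosubstrate reagent, 37 C/5% CO2 for 5 h pre-dosing; compounds 23 nL in DMSO; luminescence at each time point reflects viable cells.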

[3] = qHTS assay to identify small molecule agonists of the sonic hedgehog signaling (Shh) pathway - cell viability counter screen (AID 1259366); also: nearly all actives have a fitted effect of over 50% in size
Method in brief: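 In quantitative high-throughput format, 3T3 Gli1-Luc cells were exposed to compounds for 24hr and multiplexed for viability using CellTiter-Fluor, incubated 1hr at 37C before the fluorescence read.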

[4] = A CellTox Green Cytotoxicity Assay to monitor cytotoxicity in HEK293 cells - 16 hour (AID 1224888); also: nearly all actives have a fitted effect of over 35% in size; also: potency is read from the fitted curve at half-maximal effect
Method in brief: as §1

[5] = A CellTox Green Cytotoxicity Assay to monitor cytotoxicity in HepG2 cells - 8 hour (AID 1224890); also: potency is read from the fitted curve at half-maximal effect; nearly all actives have a fitted effect of over 45% in size
Method in brief: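 Continuous culture of HepG2 cells with a membrane-impermeant DNA dye; rising fluorescence marks dead cells. Compound exposure lasted up to 40 h at 37 C, with reads every 8 h from 0 h.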

[6] = qHTS RealTime-Glo MT Cell Viability Assay in HepG2 cells - 16 hour (AID 1224885); also: nearly all actives have a fitted effect of over 50% in size; also: potency is read from the fitted curve at half-maximal effect
Method in brief: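 Compound treatment began 5 h after plating HepG2 cells (600/well) with NanoLuc luciferase and prosubstrate. Plates stayed at 37 C for 40 h; luminescence was captured at six time points, 0 h through 40 h.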

[7] = qHTS RealTime-Glo MT Cell Viability Assay in HEK293 cells - 24 hour (AID 1224886); also: nearly all actives have a fitted effect of over 50% in size; also: potency is read from the fitted curve at half-maximal effect
Method in brief: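 Quantitative high-throughput screen of the Tox21 10K library in HEK293: cells and RealTime-Glo reagents plated together, compound added at 5 h, luminescence monitored through 40 h at 37 C.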

[8] = qHTS assay to identify small molecule antagonists of the sonic hedgehog signaling (Shh) pathway - cell viability counter screen (AID 1259367); also: nearly all actives have a fitted effect of over 55% in size
Method in brief: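 Using CellTiter-Fluor, viability of Gli1-Luc reporter 3T3 cells is read by fluorescence in the wells used for the Shh luciferase assay. Treatment lasts 23 hr with conditioned medium, then reagent 1 hr at 37C.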

[9] = target: Estrogen receptor (Homo sapiens) (UniProt P03372); assay: qHTS assay to identify small molecule antagonists of the estrogen receptor alpha (ER-alpha) signaling pathway using the BG1 cell line in the presence of 0.1 nM 17-beta-estradiol (AID 1259244); also: nearly all actives have a fitted effect of over 50% in size; also: potency is read from the fitted curve at half-maximal effect
Method in brief: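 Quantitative high-throughput screen in VM7Luc4E2 cells: compound plus 0.1 nM E2 (final), 22 h, 37C, 5% CO2; ONE-Glo added, 30 min room temperature, luminescence measured.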

[10] = qHTS assay to identify small molecule phospholipidosis (PLD) inducers (AID 1259344; active = well fitted curve in the direction sought with a large enough effect; inconclusive = small, poorly fitted or top-dose-only effect, or another doubt; inactive = no such curve, though single readings can be large; an effect the other way counts as inactive or inconclusive); details: HepG2 phospholipidosis, LipidTOX Red imaging, 24 h
Method in brief: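 Fluorescent phospholipid staining (LipidTOX Red) measured by automated microscopy in fixed HepG2 cells after 24 h treatment; nuclei counterstained with Hoechst 33342; amiodarone as reference inducer.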

[11] = target: Androgen receptor (Homo sapiens) (UniProt P10275); assay: qHTS assay to identify small molecule antagonists of the androgen receptor (AR) signaling pathway using the MDA cell line in the presence of 0.5 nM R1881 (AID 1259243); also: nearly all actives have a fitted effect of over 50% in size
Method in brief: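 Inhibition of R1881 (0.5 nM final) induced reporter signal was measured in human MDA-kb2 cells; note the MMTV promoter also responds to GR. Exposure lasted 16 hr at 37C.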
Tags tell the direction and shape of the fitted curve.

Chain of UniProt P03372 (P03372 whole entry, looked up): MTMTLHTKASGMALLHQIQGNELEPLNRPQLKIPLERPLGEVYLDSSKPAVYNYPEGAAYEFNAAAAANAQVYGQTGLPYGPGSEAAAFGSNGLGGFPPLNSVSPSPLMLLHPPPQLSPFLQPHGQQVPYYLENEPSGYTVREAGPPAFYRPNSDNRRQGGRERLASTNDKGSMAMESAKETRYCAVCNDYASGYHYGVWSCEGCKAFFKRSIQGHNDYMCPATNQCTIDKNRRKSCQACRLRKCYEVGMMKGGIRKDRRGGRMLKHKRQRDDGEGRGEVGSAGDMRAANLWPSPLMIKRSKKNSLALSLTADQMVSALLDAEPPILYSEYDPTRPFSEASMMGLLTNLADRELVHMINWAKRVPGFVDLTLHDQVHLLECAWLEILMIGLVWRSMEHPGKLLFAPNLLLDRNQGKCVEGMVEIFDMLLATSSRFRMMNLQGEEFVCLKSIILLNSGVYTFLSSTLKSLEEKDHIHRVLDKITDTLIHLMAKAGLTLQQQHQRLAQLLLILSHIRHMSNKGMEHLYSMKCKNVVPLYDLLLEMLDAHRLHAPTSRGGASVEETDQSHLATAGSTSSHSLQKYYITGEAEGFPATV
Chain of UniProt P10275 (P10275 whole entry, looked up): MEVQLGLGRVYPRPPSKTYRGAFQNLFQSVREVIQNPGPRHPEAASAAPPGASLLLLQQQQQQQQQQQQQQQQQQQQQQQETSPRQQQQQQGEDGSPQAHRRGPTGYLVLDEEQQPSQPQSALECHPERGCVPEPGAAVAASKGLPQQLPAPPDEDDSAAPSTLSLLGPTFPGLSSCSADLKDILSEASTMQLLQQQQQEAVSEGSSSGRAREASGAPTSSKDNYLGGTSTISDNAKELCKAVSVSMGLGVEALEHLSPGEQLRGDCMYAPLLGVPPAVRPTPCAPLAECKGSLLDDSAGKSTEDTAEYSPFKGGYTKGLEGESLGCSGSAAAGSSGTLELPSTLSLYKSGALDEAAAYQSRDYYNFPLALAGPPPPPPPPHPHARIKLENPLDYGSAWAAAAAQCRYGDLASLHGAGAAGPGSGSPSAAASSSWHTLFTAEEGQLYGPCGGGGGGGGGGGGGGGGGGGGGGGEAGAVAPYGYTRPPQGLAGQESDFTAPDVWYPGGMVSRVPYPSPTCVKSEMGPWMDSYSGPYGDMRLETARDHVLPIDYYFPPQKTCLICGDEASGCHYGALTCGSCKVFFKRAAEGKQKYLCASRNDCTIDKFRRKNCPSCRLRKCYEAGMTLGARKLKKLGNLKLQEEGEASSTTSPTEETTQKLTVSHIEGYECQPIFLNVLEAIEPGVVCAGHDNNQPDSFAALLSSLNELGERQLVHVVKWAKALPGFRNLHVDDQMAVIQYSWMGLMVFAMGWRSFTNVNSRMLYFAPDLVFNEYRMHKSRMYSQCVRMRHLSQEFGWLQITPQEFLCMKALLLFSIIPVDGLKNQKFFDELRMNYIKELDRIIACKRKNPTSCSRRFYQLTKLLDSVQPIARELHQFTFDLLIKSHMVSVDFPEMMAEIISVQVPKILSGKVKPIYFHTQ

In the case of `C#CCOC(=O)[C@@H](C)Oc1ccc(Oc2ncc(Cl)cc2F)cc1`, the Potency [1] is reported as inconclusive [activator, single point] and the Potency [2] is reported as inconclusive [cytotoxic, single point].

In the case of `N#CCC(=O)O`, the Potency [1] is reported as inconclusive [activator, partial curve, poor fit] and the Potency [3] is reported as “inactive”.

For `CC(CC(=O)Cl)CC(C)(C)C` (stereo not given), the Potency [1] was inconclusive [activator, single point] and the Potency [2] was “inactive”.

In the case of `C1=CCC(c2ccccc2)CC1` (stereo not given), the Potency [1] is reported as inconclusive [activator, full curve, poor fit].

For `CC(=O)N(c1onc(C)c1C)S(=O)(=O)c1ccc(N)cc1`, the Potency [1] was “inactive”.

With `CC1(C)[C@@H]2CC[C@@]1(C)C(=O)C2` the Potency [1] was inconclusive [activator, partial curve, poor fit] and the Potency [4] was inconclusive [activator, single point].

With `CN1CCC[C@@H]1c1cccnc1` the Potency [1] was “inactive” and the Potency [5] was inconclusive [activator, single point].

In the case of `O=C(O)Cc1c[nH]c2ccccc12`, the Potency [6] is reported as “inactive”.

With `C=CCOC(=O)CCC1CCCCC1` the Potency [1] was inconclusive [activator, partial curve, poor fit] and the Potency [6] was “inactive”.

With `CC(C)(CO)[N+](=O)[O-]` the Potency [6] was “inactive”.

In the case of `CC/C=C(\C)C=O`, the Potency [1] is reported as “inactive” and the Potency [2] is reported as “inactive”.

With `C=CC/C=C/C/C=C/C/C=C/C` the Potency [1] was “inactive”.

In the case of `CN1C(=O)c2ccc([N+](=O)[O-])cc2C1=O`, the Potency [1] is reported as “inactive” and the Potency [4] is reported as “inactive”.

With `Nc1c(CC(=O)O)cccc1C(=O)c1ccc(Br)cc1` the Potency [1] was inconclusive [activator, partial curve, poor fit] and the Potency [4] was “inactive”.

For `Cc1cccc(O)c1`, the Potency [1] was inconclusive [activator, single point].

With `CCN1CCCC1CNC(=O)c1cc(S(N)(=O)=O)ccc1OC` (stereo not given) the Potency [1] was inconclusive [activator, partial curve, poor fit] and the Potency [7] was inconclusive [cytotoxic, single point].

In the case of `CN(C)Cc1ccccc1`, the Potency [1] is reported as “inactive”.

With `CC(Cl)C(Cl)Cl` (stereo not given) the Potency [1] was inconclusive [activator, partial curve, poor fit], the Potency [4] was inconclusive [activator, partial curve] and the Potency [8] was “inactive”.

For `CCCCCCCCCCCCCC(=O)O`, the Potency [1] was inconclusive [activator, single point] and the Potency [4] was inconclusive [activator, single point].

For `CC(C)c1cccc(O)c1`, the Potency [1] was “inactive”.

For `COC(=O)[C@H]1[C@H]2C[C@@H]3c4[nH]c5cc(OC)ccc5c4CCN3C[C@H]2C[C@@H](OC(=O)COc2ccc(OC)cc2)[C@@H]1OC`, the Potency [1] was inconclusive [activator, single point], the Potency [4] was “inactive” and the Potency [9] was “inactive”. The Potency [10] was “inactive”.

For `CC(C)(C)NCCO`, the Potency [1] was inconclusive [activator, single point].

In the case of `COc1cc(Cl)ccc1Oc1ccc(Cl)cc1Cl`, the Potency [1] is reported as “inactive” and the Potency [7] is reported as inconclusive [cytotoxic, partial curve, poor fit].

With `CC1=C(C)C(=O)C(CCCCC#CCCCC#CCO)=C(C)C1=O` the Potency [1] was inconclusive [activator, partial curve], the Potency [6] was inconclusive [cytotoxic, partial curve] and the Potency [7] was active: 0.601 µM. For the same molecule, the Potency [2] was active: 0.535 µM and the Potency [9] was inconclusive [inhibitor, partial curve].

For `CCCCCCCC(=O)OCC`, the Potency [1] was “inactive” and the Potency [7] was “inactive”.

With `CCCCCCCCNC` the Potency [1] was “inactive” and the Potency [2] was “inactive”.

In the case of `CC(C)(C)c1ccc(-c2ccc(C(C)(C)C)cc2)cc1`, the Potency [1] is reported as inconclusive [activator, partial curve, poor fit] and the Potency [11] is reported as “inactive”.

With `Cn1cccc1` the Potency [1] was “inactive” and the Potency [2] was “inactive”.

In the case of `C=CCCCCCCCCC(=O)OCC`, the Potency [1] is reported as inconclusive [activator, single point].

With `CC(C)OC(=O)CCC(=O)OC(C)C` the Potency [6] was “inactive”.
